Test results published in PubChem BioAssay AID504339 (National Center for Advancing Translational Sciences (NCATS), 2011).
The whole screen tested about 390,000 compounds, of which about 17,000 (4.4%) were called active. The inconclusive results got no clear call from the source; some entries with a clear call stand among them for comparison. Calls follow the shape of the dose curve; as a rule, active = well fitted inhibition curve with a large enough effect; inconclusive = small, poorly fitted or top-dose-only effect; inactive = no such curve, though single readings can be large or run the other way. A potency beside an inconclusive call is a rough fit, not a confirmed value.

Target: Lysine-specific demethylase 4A (Homo sapiens) (UniProt O75164)
Test: qHTS Assay for Inhibitors of JMJD2A-Tudor Domain; also: nearly all actives have a fitted effect of over 50% in size
Details: AlphaScreen JMJD2A-Tudor / H3K4me3 peptide binding; series mostly up to 114 µM
Potency is read from the fitted curve at half-maximal effect; tags tell the direction and shape of the fitted curve.

Chain of UniProt O75164 (O75164 whole entry, looked up, the tested form may be a part): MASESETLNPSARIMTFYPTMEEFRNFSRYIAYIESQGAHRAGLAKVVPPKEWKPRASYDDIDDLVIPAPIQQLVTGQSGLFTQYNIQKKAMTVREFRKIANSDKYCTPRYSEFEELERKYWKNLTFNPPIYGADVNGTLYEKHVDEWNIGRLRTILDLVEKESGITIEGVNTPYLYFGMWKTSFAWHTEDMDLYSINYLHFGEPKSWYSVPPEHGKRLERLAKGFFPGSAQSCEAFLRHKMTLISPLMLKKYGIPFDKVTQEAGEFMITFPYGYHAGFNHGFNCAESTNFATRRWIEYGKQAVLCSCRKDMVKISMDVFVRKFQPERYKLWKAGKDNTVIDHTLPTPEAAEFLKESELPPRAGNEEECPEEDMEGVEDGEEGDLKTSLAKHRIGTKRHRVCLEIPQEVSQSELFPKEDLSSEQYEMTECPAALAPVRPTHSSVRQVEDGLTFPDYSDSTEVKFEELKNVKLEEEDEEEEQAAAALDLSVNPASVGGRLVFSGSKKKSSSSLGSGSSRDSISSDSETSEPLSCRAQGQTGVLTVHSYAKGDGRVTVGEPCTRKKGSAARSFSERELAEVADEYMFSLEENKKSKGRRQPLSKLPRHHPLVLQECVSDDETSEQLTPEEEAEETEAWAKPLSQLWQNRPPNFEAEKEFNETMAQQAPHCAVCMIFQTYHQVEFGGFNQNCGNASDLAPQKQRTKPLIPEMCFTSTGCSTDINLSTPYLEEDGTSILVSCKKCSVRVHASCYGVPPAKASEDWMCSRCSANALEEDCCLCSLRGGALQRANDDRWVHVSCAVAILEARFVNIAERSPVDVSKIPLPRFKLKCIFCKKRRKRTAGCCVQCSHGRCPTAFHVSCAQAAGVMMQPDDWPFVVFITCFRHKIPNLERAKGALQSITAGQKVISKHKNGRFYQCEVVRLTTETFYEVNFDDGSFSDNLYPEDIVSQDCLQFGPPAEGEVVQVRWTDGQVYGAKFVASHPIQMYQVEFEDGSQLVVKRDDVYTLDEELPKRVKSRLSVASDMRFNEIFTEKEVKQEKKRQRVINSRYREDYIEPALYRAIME

SMILES | Potency
COC(=O)Nc1ccc(S(=O)(=O)N2CCCc3cccc(O)c32)cc1 | inconclusive: 89.1 µM [inhibitor, partial curve]
Cc1ccc2nc(Cl)c(/C=C/C(=O)c3ccco3)cc2c1 | inconclusive: 56.2 µM [inhibitor, partial curve]
CC1CCC2C(C1)c1sc(=O)[nH]c1SC2(C)C (stereo unspecified) | inconclusive: 44.7 µM [inhibitor, partial curve]
O=C(Nc1ccc(C(F)(F)F)cc1[N+](=O)[O-])O[C@H]1[C@H](Cc2ccccc2)NS(=O)(=O)[C@H]2C[C@@H]3C=C[C@]12O3 | inconclusive: 56.2 µM [inhibitor, partial curve]
Cn1c(SSc2ccc(-c3cccnc3)n2C)ccc1-c1cccnc1 | active: 50.1 µM
OC(CNCC1(N2CCCCC2)CCCCC1)COc1ccc(Cl)cc1Cl (stereo unspecified) | active: 2.82 µM
CC(C)(C)n1cnc2cc(NC(=O)c3cccs3)ccc21 | inactive
CC1=C/C(=N\OS(=O)(=O)c2ccccc2)C(C)=CC1=O | inconclusive: 25.1 µM [inhibitor, partial curve]
CC(C)C[C@@H](CN1CCCC1CN1C(=S)NC[C@@H]1Cc1ccc(O)cc1)N1C[C@H](Cc2ccc(O)cc2)N(CC2CCCCC2)C1=S (stereo partly specified) | active: 39.8 µM
O=C(NN=Cc1ccc(O)cc1O)c1ccccc1NS(=O)(=O)c1cccs1 | inconclusive: 89.1 µM [inhibitor, partial curve]
COc1ccc(NC(=O)CSc2c3c(nc4cc(Cl)ccc24)CCCC3)cc1OC | inactive
S=C(NCCc1ccccc1)N1CCn2cccc2C1c1ccncc1 (stereo unspecified) | inconclusive: 89.1 µM [inhibitor, single point]
CC1CCCC(NC(=O)NC(=O)COC(=O)c2ccc(O)cc2O)C1C (stereo unspecified) | inconclusive: 89.1 µM [inhibitor, single point]
Cc1ccc2c(=O)c(C(=O)c3ccccc3)cn(CC(=O)Nc3ccc4c(c3)OCCO4)c2n1 | inactive
Cc1nc(C(Cl)(Cl)Cl)nc2[nH]ccc(=O)c12 | active: 11.2 µM
CC12CCC(C(=O)NCc3ccc(F)cc3)(OC1=O)C2(C)C (stereo unspecified) | inactive
Cc1cc(OCC(=O)Nc2ccc(S(=O)(=O)N3CCN(C)CC3)cc2)cc(C)c1Cl | active: 50.1 µM
CN1CCN(S(=O)(=O)c2cccc(C(=O)Nc3nccs3)c2)CC1 | inconclusive: 35.5 µM [inhibitor, partial curve]
O=C(Nc1nnc(-c2ccncc2)o1)c1cccc(N2C(=O)CCC2=O)c1 | active: 6.31 µM
CC(C)(C)c1ccc(C2Sc3ccccc3NC3=C2C(=O)c2ccccc23)cc1 (stereo unspecified) | active: 25.1 µM
COCCN(CC(=O)NCC1CCCO1)C(=O)CCC(=O)Nc1ccccn1 (stereo unspecified) | inconclusive: 10 µM [inhibitor, full curve, poor fit]
C=CCSc1nc2sc3c(c2c(=O)n1-c1ccc(C)cc1)CCN(C)C3 | inactive
Cn1c(=O)c2sccc2n2c(CCC(=O)NCc3ccc(F)cc3)nnc12 | inactive

SMILES | Potency
CC(=O)NC(c1ccc(Cl)cc1)c1ccc2cccnc2c1O (stereo unspecified) | inconclusive: 31.6 µM [inhibitor, full curve]
CCOC(=O)c1sc(N=NC2=C(O)CCCC2=O)c(C(=O)OCC)c1C | active: 25.1 µM
CC(CNS(=O)(=O)c1ccc(Cl)cc1)n1cncn1 (stereo unspecified) | inactive
O=C(C1CC(=O)N(c2ccc3c(c2)OCCO3)C1)N1CCN(c2ccccc2)CC1 (stereo unspecified) | inconclusive: 31.6 µM [inhibitor, partial curve]
COc1cccc(/C=C/C(=O)c2cccc([N+](=O)[O-])c2)c1OC | inconclusive: 39.8 µM [inhibitor, single point]
CSc1ncccc1C(=O)OCC(=O)c1cc(C)n(CC2CCCO2)c1C (stereo unspecified) | inconclusive: 39.8 µM [inhibitor, partial curve]
CC1=C(C)C(C)=C(C#N)C(=C(C#N)C#N)N1 | inactive
O=C(CC12CC3CC(CC(C3)C1)C2)NC(=S)Nc1ccc(CN2CCOCC2)cc1 | inconclusive: 56.2 µM [inhibitor, partial curve]
COc1cccc(/C=N/c2sc(Cc3ccccc3)c(C)c2C(N)=O)c1O | inconclusive: 79.4 µM [inhibitor, partial curve]
Cc1ccc(SCC2=NN(c3nc(C)cc(C)n3)C(=O)C2)cc1 | inactive
COc1cc(/C=C(\NC(C)=O)C(=O)Nc2cccc(O)c2)ccc1OC(C)=O | inactive
COc1ccc(-n2c(C)cc(C(=O)CSc3ccc(NC(C)=O)cc3)c2C)cc1 | inconclusive: 35.5 µM [inhibitor, single point]
COC(=O)CCN1CCc2cc(N=Nc3ccc([N+](=O)[O-])cc3)ccc21 | inconclusive: 11.2 µM [inhibitor, full curve]
Cn1cccc1C(=O)OCc1nc2ccccc2c(=O)[nH]1 | inconclusive: 50.1 µM [inhibitor, partial curve, poor fit]
O=C1CC(c2cccc([N+](=O)[O-])c2)c2ccc3ccccc3c2N1 (stereo unspecified) | inconclusive: 35.5 µM [inhibitor, partial curve]
O=C(O)c1cccc(-c2ccc3c(c2)OCO3)c1 | inactive
CCOc1ccc2nc(N(CCCN(C)C)C(=O)c3ccc(C(=O)c4ccccc4)cc3)sc2c1 | inconclusive: 56.2 µM [inhibitor, partial curve]
COC(=O)c1ccc(Oc2nc(C(N)=O)cc(-c3ccccc3)n2)cc1 | inconclusive: 39.8 µM [inhibitor, full curve]
CC(C)Cn1nc(C(=O)NCc2ccccc2CN2CCCC2)c2ccccc2c1=O | inactive
CC(NC(=O)Cc1ccc(Br)cc1)c1ccccc1 (stereo unspecified) | inactive
COc1cc(OC)c(OC)cc1CNCCSc1nnnn1-c1ccccc1 | inconclusive: 89.1 µM [inhibitor, partial curve]
COc1cccc(CNCCNC(=O)c2ccco2)c1OC | inconclusive: 39.8 µM [inhibitor, partial curve, poor fit]
Cn1cc(CC(=O)N2CCN(c3ccc(Cl)cc3)CC2)c2ccccc21 | inconclusive: 50.1 µM [inhibitor, partial curve]
